# Reference: publication PMC4336329 (PLoS ONE, 2015)
# The campaign covered roughly 310,000 compounds. About 14,000 (4.5%) showed an effect of 50% or more. Effects have a minus sign here. The list shows a part of the results.
# Target: human ether-à-go-go-related gene (hERG) potassium channel (human, UniProt Q12809)
# Test: primary screen, population patch clamp on CHO cells stably expressing hERG
# 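Also: peak tail current of the secondary pulse compared with the same well before compound.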
# human ether-à-go-go-related gene (hERG) potassium channel, sequence (Q12809 whole entry, looked up): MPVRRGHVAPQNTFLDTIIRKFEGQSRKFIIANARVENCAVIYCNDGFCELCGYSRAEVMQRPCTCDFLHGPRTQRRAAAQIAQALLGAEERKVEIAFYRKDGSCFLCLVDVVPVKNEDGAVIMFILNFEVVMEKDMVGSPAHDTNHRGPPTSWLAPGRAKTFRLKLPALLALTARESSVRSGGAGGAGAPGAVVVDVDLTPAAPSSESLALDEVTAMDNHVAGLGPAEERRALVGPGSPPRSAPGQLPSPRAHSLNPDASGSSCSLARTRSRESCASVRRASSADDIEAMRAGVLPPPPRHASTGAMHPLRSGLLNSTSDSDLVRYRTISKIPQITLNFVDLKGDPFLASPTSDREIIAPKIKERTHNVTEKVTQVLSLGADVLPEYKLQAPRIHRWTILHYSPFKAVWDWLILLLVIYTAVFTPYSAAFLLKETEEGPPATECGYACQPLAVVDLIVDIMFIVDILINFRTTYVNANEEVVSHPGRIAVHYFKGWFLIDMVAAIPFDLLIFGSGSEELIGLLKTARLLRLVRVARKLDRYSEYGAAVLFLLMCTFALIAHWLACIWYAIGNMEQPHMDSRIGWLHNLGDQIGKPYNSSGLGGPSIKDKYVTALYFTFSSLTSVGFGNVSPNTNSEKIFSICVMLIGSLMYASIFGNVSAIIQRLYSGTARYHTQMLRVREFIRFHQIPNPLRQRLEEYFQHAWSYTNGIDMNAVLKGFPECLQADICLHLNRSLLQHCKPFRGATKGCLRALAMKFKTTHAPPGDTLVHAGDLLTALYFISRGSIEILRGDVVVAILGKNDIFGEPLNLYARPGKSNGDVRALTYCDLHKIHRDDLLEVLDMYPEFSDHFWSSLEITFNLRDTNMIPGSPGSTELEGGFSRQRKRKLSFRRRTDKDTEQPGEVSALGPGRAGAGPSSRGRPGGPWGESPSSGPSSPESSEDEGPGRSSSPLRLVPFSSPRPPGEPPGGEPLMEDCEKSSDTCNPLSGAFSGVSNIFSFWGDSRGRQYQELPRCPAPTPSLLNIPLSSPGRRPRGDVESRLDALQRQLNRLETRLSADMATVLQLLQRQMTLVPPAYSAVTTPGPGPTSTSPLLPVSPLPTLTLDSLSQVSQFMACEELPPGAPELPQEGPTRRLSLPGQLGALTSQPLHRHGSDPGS
row,SMILES,"hERG current change (%, negative = inhibition) at 10uM [%]"
1,CCOc1cc(/C=C/C(=O)OCC(=O)NC2CCS(=O)(=O)C2)ccc1OCc1ccccc1 (stereo not shown),34.8
2,CCOc1ccc(/C=N/NC(=O)c2cc(-c3cccn3C)n[nH]2)cc1,5.27
3,O=C1CC[C@H](O)CCN1CCSc1ccc(Br)cc1,-16.2
4,O=C1OC(Nc2ccc3ncccc3c2)c2ccccc21 (stereo not shown),21.8
5,Cn1c(SCC(=O)Nc2cccc(O)c2)nnc1-c1ccc(S(=O)(=O)N2CCOCC2)cc1,9.99
6,CCC(C)(C)NC(=O)CN(C(=O)CCC(=O)Nc1cc(C)ccn1)c1ccc2c(c1)OCO2,-10.2
7,CC(C)(C)NC(=O)CN(C(=O)CS(=O)CC(=O)Nc1ccc(F)cc1)c1cccc(F)c1 (stereo not shown),1.86
8,O=C(Cn1cnc2c(nnn2-c2cccc(F)c2)c1=O)Nc1ccc2c(c1)OCCO2,13.4
9,CCc1nnc(NS(=O)(=O)c2ccc(NC(=O)c3cc4ccccc4oc3=O)cc2)s1,9.31
10,O=[N+]([O-])c1ccc(Oc2ncccn2)cc1,4.28
11,Cc1ccc(S(=O)(=O)NC(Cc2cnc[nH]2)C(=O)O)cc1 (stereo not shown),17.8
12,Cc1ccc(C(=O)COC(=O)CNC(=O)CNC(=O)c2ccc(C)cc2)cc1,-13.1
13,COc1cccc(NC(=O)CSc2ccc3nnc(CCNC(=O)c4ccccc4)n3n2)c1,-19.4
14,CN(C)CCNC(=O)NC(=O)c1ccc(Cl)cc1,-14.7
15,CC(=O)NC(c1ccc(C(C)C)cc1)c1ccc2cccnc2c1O (stereo not shown),18.3
16,O=C1c2ccccc2S(=O)(=O)N1CCOc1ccccc1,-7.6
17,Cc1ccsc1/C=N/NC(=O)c1c[nH]c2ccccc12,13.6
18,CCn1c(SCC(=O)N(Cc2ccccc2)C2CCS(=O)(=O)C2)nc2ccccc2c1=O (stereo not shown),-61
19,O=C(/C=C\c1ccccc1)NCC(=O)N/N=C/c1ccc(O)cc1O,9.48
20,C=CCc1ccccc1OCC(O)CNC1CCCC1.Cl (stereo not shown),9.54
21,CCn1cnc2c(Nc3cc(F)cc(F)c3)nc(C#N)nc21,23.2
22,CCC(=O)Nc1cccc(-c2nc3ncccc3o2)c1C,15.6

row,SMILES,"hERG current change (%, negative = inhibition) at 10uM [%]"
1,O=C(NCc1ccc2c(c1)OCO2)c1ccc(Cl)s1,5.61
2,CSc1ccccc1NC(=O)c1cc(C)on1,-3.32
3,O=C(O)c1ccc2ccc3ccccc3c2c1,-0.225
4,CC(=O)Nc1ccc(C(=O)NNC(=O)c2ccc(Cl)cc2)cc1,19.5
5,Cc1ccc(CN2CCN(/N=C/C=C/c3ccccc3[N+](=O)[O-])CC2)cc1,-21.1
6,CN(C)C(=O)c1sccc1Oc1ccc(F)cc1[N+](=O)[O-],7.25
7,O=C(CN1C(=O)c2ccccc2S1(=O)=O)Nc1ccon1,20.4
8,Cc1ccc(NC(=O)C2CC(=O)n3ncnc3N2)cc1C (stereo not shown),4.79
9,CCc1nnc(NS(=O)(=O)c2ccc(NC(=O)COc3ccc(Cl)c(C)c3)cc2)s1,14.2
10,Nn1c(COc2ccccc2F)nnc1SCC(=O)NC1CCCC1,10.3
11,COc1ccc(CC(=O)Nc2ccc(-c3cn4ccccc4n3)cc2)cc1OC,16.5
12,O=C1/C(=C2/NCCN2C2CC(=O)N(c3ccccc3)C2=O)CC/C1=C\c1ccccc1 (stereo not shown),-16.5
13,COc1ccccc1NCC(=O)n1nc(C)cc1C,29.8
14,CCCNC(=S)NCCN1CCCCC1.O=C(O)C(=O)O,5.71
15,Cc1nnc(NC(=O)Oc2ccccc2)s1,-13.9
16,CS(=O)(=O)NCCn1ccc2ccccc21,-14.4
17,CCNC(=S)N1CCC(NC(=O)C2CCCCC2)CC1,7.4
18,Cc1cccc(C)c1NC(=O)CNC(=O)c1c(C)nn(-c2ccccc2)c1C,3.65
19,O=C(c1ccoc1)N1CCC2(CCCN(Cc3ccc(F)c(F)c3)C2)C1 (stereo not shown),-27.1
20,Cc1c(OCC(=O)N(C)C)ccc2c(-c3ccccc3)cc(=O)oc12,-7.87
21,CC1CCN(S(=O)(=O)c2ccc(C(=O)Nc3nnc(C4=COCCO4)o3)cc2)CC1,-1.13
22,Cc1nn(CCC#N)c(NC(=O)c2ccccc2)c1P(=O)(Nc1ccc(Br)cc1)N1CCOCC1 (stereo not shown),20.6

row,SMILES,"hERG current change (%, negative = inhibition) at 10uM [%]"
1,O=C(COc1ncnc2ccc(Br)cc12)NC1CCCC1,2.91
2,COc1ccc(C(=O)C2CCCN(Cc3cccc(C)n3)C2)c(OC)c1 (stereo not shown),-76.2
3,c1ccc2c(c1)nc1n2CCS1,11.3
4,CC(C)N=C(NS(=O)(=O)c1ccc(Br)cc1)c1ccc(Cl)cc1,4.83
5,Cc1ccc(-c2c(C(=O)NCc3ccccc3)oc(=O)c3ccccc23)cc1,1.98
6,O=C(NCCc1nc2ccccc2[nH]1)Nc1ccccc1,-6.39
7,CC(=O)NC12CC3CC(C1)CC(C(=O)Nc1c(C)n(C)n(-c4ccccc4)c1=O)(C3)C2,8.06
8,CCOC(=O)c1ccc(N2C(=O)CC(N(Cc3ccc4c(c3)OCO4)C(=O)Nc3ccccc3)C2=O)cc1 (stereo not shown),-3.13
9,CC(C)c1cc(C(=O)N2CCCC(Nc3ccc(F)cc3)C2)n[nH]1 (stereo not shown),8.32
10,CSc1ncccc1C(=O)OCn1nnc2ccccc2c1=O,6.19
11,COc1ccc2c(CC(=O)N3CCN(S(=O)(=O)c4cccs4)CC3)coc2c1,-13.4
12,CCN1CCCC1CNC(=O)c1c(O)c2c([nH]c1=O)CCCC2 (stereo not shown),-8.7
13,CCC(C)(C)NC(=O)C1CC(=O)N(CCc2ccc(F)cc2)C1 (stereo not shown),16.7
14,COC(=O)c1ccc(C(=O)OC)c(NC(=O)CCc2ccc(C)o2)c1,9
15,CCCNC(=O)CN(c1ccc(F)c(Cl)c1)S(C)(=O)=O,14.4
16,CCN(CC)C(=O)CSc1nnc(-c2ccccn2)n1Cc1ccccc1,-25.1
17,Clc1ccc(OCCN2CCCCC2)cc1Cl.O=C(O)C(=O)O,-42.1
18,COc1cc(/C=C/CO)cc(OC)c1O[C@@H]1O[C@H](CO)[C@@H](O)[C@H](O)[C@H]1O,21.3
19,CN1C(=O)C(C)(C)c2cc(S(=O)(=O)N3CCC(C(=O)Nc4ccc(Cl)cc4)CC3)ccc21,10
20,c1ccc2[nH]c(-c3cscn3)nc2c1,10.3
21,CN(C)S(=O)(=O)c1cccc(C(=O)NCC(C)(C)CNC(=O)c2cccc(S(=O)(=O)N(C)C)c2)c1,-17.4
22,CCN(C(=O)c1ccco1)C1C2CC3CC(C2)CC1C3 (stereo not shown),-12

row,SMILES,"hERG current change (%, negative = inhibition) at 10uM [%]"
1,O=C(NCCc1ccccc1)c1ccc(NS(=O)(=O)c2ccc3[nH]c(=O)[nH]c3c2)cc1,8.53
2,CCOCCCNC(=O)C1CCCN1S(=O)(=O)c1ccc(Cl)cc1 (stereo not shown),6.65
3,CCN(CC)S(=O)(=O)c1ccc(C(C)NC(=O)C2CCCN2C(=O)c2cccs2)cc1 (stereo not shown),-15.5
4,COC/C=C/C1=CC2=CC(=O)C(C)(OC(=O)C3CCCC3)C(=O)C2=CO1 (stereo not shown),-1.2
5,COC(=O)c1ccccc1NC(=O)C1CC(=O)N(C2CCCCC2)C1 (stereo not shown),-16.7
6,Cc1ccc(Nc2nc(C)cc(C)c2C(N)=O)cc1,6.38
7,COc1ccccc1NC(=O)CSc1nnc(COc2ccccc2C)o1,-8.37
8,COc1ccccc1NC(=O)c1ccc(S(=O)(=O)N2CCC(C)CC2)cc1,2.25
9,CCCCNC(=S)N/N=C/c1ccc(OCC(=O)Nc2c(C)cc(C)cc2C)c(OC)c1,11
10,O=C(Nc1ccc(F)cc1)NC1(C(=O)NCc2ccco2)CCCCC1,18.4
11,Cc1ccc2nc3c(c(N)c2c1)CCN3C.O=C(O)C(=O)O,-33.1
12,Cc1ccc(S(=O)(=O)N2CCN(C(=O)N3CCOCC3)C2c2ccc(N(C)C)cc2)cc1 (stereo not shown),-23.6
13,CCCCn1c(N)c(N(CCOC)C(=O)c2cc(C)oc2C)c(=O)[nH]c1=O,-8.67
14,CCC(C)(C)NC(=O)C(c1ccc(C)cc1)N(Cc1ccco1)C(=O)CCC(=O)Nc1nccs1 (stereo not shown),9.32
15,Cc1oc(S(=O)(=O)N(C)C)cc1C(=O)Nc1ccc(F)cc1,9.85
16,CC(C)(C)c1ccc(C(=O)/C=C2\NC(=O)CS2)cc1,-9.16
17,CC1CCN(C(=O)CN(c2ccc3c(c2)OCCO3)S(=O)(=O)c2ccccc2)CC1,-26.6
18,CC(Sc1nc2nn(-c3ccccc3)c(=O)c-2c2n1CCCCC2)C(N)=O (stereo not shown),-15
19,COc1cc(CN2CCC(n3nccc3NC(=O)C3CC3)CC2)cc(OC)c1,-66.3
20,COC(=O)C1=C(c2ccc(Cl)c(C(F)(F)F)c2)C[C@@H]2CC[C@H]1N2C,-21.9
21,O=C(Nc1nnc(Cc2ccc(F)cc2)s1)Nc1ccccc1F,22.4
22,COc1cc(/C=C2\CC/C(=C\c3ccc(OCCO)c(OC)c3)C2=O)ccc1OCCO,2.76
